Several values for one entry are separate records, joined by “and”; a condition that tells them apart may be missing. Equal entries are not always repeated. The shares of active, inactive and inconclusive entries below differ from those in the screen. For some assays here: Where the call is inconclusive, the potency comes from a doubtful curve fit. Activity calls are given as the source filed them. Unless noted, the call rests on the fitted dose curve; in most records, active means well fitted curve in the direction sought with a large enough effect; inconclusive means small, poorly fitted or top-dose-only effect, or another doubt; inactive means no such curve, though single readings can be large; an effect the other way counts as inactive or inconclusive.
Legend:
[1] = qHTS assay to identify small molecule inhibitors of chordoma cells - UCH-1 (AID 1259355); further: nearly all actives have a fitted effect of over 55% in size; further: potency means the concentration at half of the fitted maximal effect
In short: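 Seed 800 cells per well; incubate overnight at 37 C, 5% CO2. Add test compounds (15 concentrations), then the auranofin–topoisomerase-agent combination. Incubate 48hr, add CellTiter-Glo, wait 30min, read luminescence.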

[2] = P-glycoprotein substrates identified in KB-8-5-11 adenocarcinoma cell line, qHTS therapeutic library screen (AID 1346987); further: nearly all actives have a fitted effect of over 65% in size; further: potency means the concentration at half of the fitted maximal effect
In short: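 Steps: plate 500 KB-8-5-11 cells/well in DMEM + 10% FCS (colchicine removed); pin compounds in dose-response; incubate 72 h, 37 degree C, 5% CO2; add CellTiter-Glo, 5 min; read luminescence.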

[3] = Identifying Small Molecule Inhibitors of Pancreatic Cancer Stem Cells (A2780, Spheroid) (AID 1259357); settings: Potency: A2780 spheroid viability unless noted; viability (percent of control): at 46.1 µM (top of the series) unless noted;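 further: compound exposure lasted 48 h before the ATP luminescence read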; further: potency means the concentration at half of the fitted maximal effect;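 on viability (percent of control): 100% = DMSO treated cells and 0% = wells without cells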
In short: (§1)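 After a 4 h attachment period, compounds were pinned into wells and cultures held 48 h under standard incubator conditions. Viability was then measured as CellTiter-Glo luminescence following 10 min at room temperature.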

[4] = Identifying Small Molecule Inhibitors of Pancreatic Cancer Stem Cells (Panc1, Spheroid) (AID 1259359); settings: Panc1 spheroid cancer stem cell viability; viability, % of control: at 46.1 µM (top of the series);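 further: compound exposure lasted 48 h before reading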; further: potency means the concentration at half of the fitted maximal effect
In short: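 Spheroids grown 14 days in stem cell media on hydrogel-coated nonadherent plates; 2D lines seeded directly. Compounds added after 4 h attachment, 48 h at 37C, 5% CO2; CellTiter-Glo luminescence normalized to DMSO (no inhibition) and no-cell wells (full inhibition).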

[5] = Identifying Small Molecule Inhibitors of Pancreatic Cancer Stem Cells (SN12C, Spheroid) (AID 1259360); settings: Potency: SN12C spheroid viability; further: potency means the concentration at half of the fitted maximal effect
In short: as §1

[6] = qHTS assay for cell viability of HEK293 cells (AID 743288); settings: ATP luminescence (CellTiter-Glo), 18 h; further: potency means the concentration at half of the fitted maximal effect; nearly all actives have a fitted effect of over 50% in size
In short: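 Total intracellular ATP, measured with a luciferase-coupled reagent, indicates the number of viable HEK293 cells. Exposure to test chemicals lasts 18 h at 37 C in 1,536-well format at 2,000 cells/well.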

[7] = Identifying Small Molecule Inhibitors of Pancreatic Cancer Stem Cells (SN12C, Adherent) (AID 1259358);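 further: potency means the concentration at half of the fitted maximal effect; cell survival measured after 48 h of compound exposure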
In short: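 Cytotoxicity read by CellTiter-Glo luminescence after 48 h compound exposure at 37C; percent activity scaled between DMSO-treated cells and cell-free wells. Spheroid formats used cells pre-formed 14 days in stem cell media on hydrogel.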

[8] = NS1 protein of Zika virus - qHTS assay to identify small molecule inhibitors in human HEK 293 cells (AID 1347053); further: potency means the concentration at half of the fitted maximal effect; nearly all actives have a fitted effect of over 55% in size
In short: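 Inhibition of NS1 expression was scored in HEK 293 cells given compound 1 h ahead of MR766 virus (MOI = 0.5). Following 24 h at 37 C, two anti-NS1 antibodies generated a TR-FRET signal, scaled between uninfected and infected controls.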

[9] = molecular target: Tyrosine-protein phosphatase non-receptor type substrate 1 (Homo sapiens) + Leukocyte surface antigen CD47 (Homo sapiens) (UniProt P78324+Q08722); assay: CD47-SIRPalpha protein protein interaction - HTRF assay qHTS validation (AID 1347058; active means well fitted curve in the direction sought with a large enough effect in the signal ratio, not every such curve was filed as active; inconclusive means small, poorly fitted or top-dose-only effect, or effect the other way, or a change in a side signal; inactive means no such curve, though single readings can be large or run the other way; the % refers to the signal ratio;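 further: recombinant soluble extracellular CD47 with His tag and biotinylated SIRPalpha domains; 0% is about no effect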)
In short: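 TR-FRET read (Ch1/Ch2 ratio) of soluble extracellular CD47 and Avi-biotinylated SIRPalpha domains in PBS pH 7.4 with 0.05% IGEPAL; 7-point compound titration. Sequential 30 min room-temperature steps; non-biotinylated SIRPalpha as control inhibitor.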
Tags describe the fitted curve by direction and shape.

Sequence of UniProt P78324 (P78324 whole entry, looked up, the tested form may be a part): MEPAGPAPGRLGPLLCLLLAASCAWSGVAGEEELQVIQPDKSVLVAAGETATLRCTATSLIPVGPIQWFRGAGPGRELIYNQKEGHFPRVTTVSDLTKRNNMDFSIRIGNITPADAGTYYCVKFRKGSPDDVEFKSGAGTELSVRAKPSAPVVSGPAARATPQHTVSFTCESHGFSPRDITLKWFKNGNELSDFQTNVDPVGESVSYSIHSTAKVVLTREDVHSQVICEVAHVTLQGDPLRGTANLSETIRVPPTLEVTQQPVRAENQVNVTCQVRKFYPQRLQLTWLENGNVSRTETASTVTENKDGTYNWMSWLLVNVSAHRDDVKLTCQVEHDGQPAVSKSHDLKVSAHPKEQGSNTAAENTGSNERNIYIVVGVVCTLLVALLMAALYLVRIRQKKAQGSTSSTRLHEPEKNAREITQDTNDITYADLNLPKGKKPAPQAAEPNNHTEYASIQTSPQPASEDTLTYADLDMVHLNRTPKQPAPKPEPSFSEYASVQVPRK
Sequence of UniProt P78324 (Q08722 whole entry, looked up, the tested form may be a part): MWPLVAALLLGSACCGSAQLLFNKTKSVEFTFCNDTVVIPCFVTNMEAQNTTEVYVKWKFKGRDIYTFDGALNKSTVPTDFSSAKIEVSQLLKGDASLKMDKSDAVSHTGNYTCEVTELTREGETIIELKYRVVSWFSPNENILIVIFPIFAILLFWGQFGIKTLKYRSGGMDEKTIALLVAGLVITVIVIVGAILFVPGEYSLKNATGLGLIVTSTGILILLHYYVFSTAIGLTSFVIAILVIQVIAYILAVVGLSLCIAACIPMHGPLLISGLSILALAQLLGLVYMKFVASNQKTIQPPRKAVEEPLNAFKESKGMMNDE

Q: Which Potency [1] does the source give for CC[N+](CC)(CCNC(=O)C(=O)NCC[N+](CC)(CC)Cc1ccccc1Cl)Cc1ccccc1Cl here?
A: inconclusive: 0.224 µM [cytotoxic, full curve, poor fit]

Q: What about the Potency [2] of the same compound?
A: inactive

Q: With CN(C)CCCOc1nn(Cc2ccccc2)c2ccccc12 as the compound, how does the Potency [1] read?
A: inconclusive: 0.0018 µM [cytotoxic, full curve, poor fit]

Q: And the Potency [2]?
A: inconclusive: 14.6 µM [inhibitor, partial curve, poor fit]

Q: Which results are given for CCOc1nc2cccc(C(=O)O)c2n1Cc1ccc(-c2ccccc2-c2nn[nH]n2)cc1?
A: Potency [1]: inactive; Potency [2]: inactive

Q: Which results are given for O=C1CSC2(CCN(CCCN3c4ccccc4Sc4ccc(Cl)cc43)CC2)N1?
A: Potency [1]: inconclusive: 35.5 µM [cytotoxic, single point]; Potency [2]: inconclusive: 18.4 µM [inhibitor, partial curve]

Q: With CC1(CN2CCC(n3c(=O)[nH]c4ccccc43)CC2)OCc2ccccc2-n2cccc21 (configuration not stated) as the compound, how does the Potency [1] read?
A: inactive

Q: And the viability (percent of control) [3]?
A: inconclusive: 120%

Q: What about the viability, % of control [4] of the same compound?
A: inconclusive: 52%

Q: What about the Potency [5] of the same compound?
A: inconclusive: 33.2 µM [cytotoxic, single point]

Q: What about the Potency [2] of the same compound?
A: inconclusive: 9.2 µM [inhibitor, partial curve] and inconclusive: 29.1 µM [inhibitor, single point]

Q: Which results are given for OC[C@@H](O)[C@H](O)[C@H](O)[C@@H](O)CO?
A: Potency [1]: inconclusive: 35.5 µM [cytotoxic, single point]; Potency [2]: inactive

Q: With CCN(CCCCOC(=O)c1ccc(OC)c(OC)c1)C(C)Cc1ccc(OC)cc1 (configuration not stated) as the compound, how does the Potency [1] read?
A: inconclusive: 0.199 µM [cytotoxic, full curve, poor fit]

Q: And the Potency [2]?
A: inconclusive: 2.48 µM [inhibitor, partial curve]

Q: Which results are given for CCOc1ccc(Cc2nccc3cc(OCC)c(OCC)cc23)cc1OCC?
A: Potency [1]: inconclusive: 11.2 µM [cytotoxic, partial curve, poor fit]; Potency [2]: inconclusive: 3.5 µM [inhibitor, partial curve]

Q: With NC(=O)C(=O)N/N=C/c1ccc([N+](=O)[O-])o1 as the compound, how does the Potency [1] read?
A: inconclusive: 35.5 µM [cytotoxic, single point]

Q: What about the Potency [2] of the same compound?
A: inconclusive: 29.1 µM [inhibitor, single point]

Q: Which Potency [1] does the source give for C[C@@H]1C[C@H]2[C@@H]3CCC4=CC(=O)C=C[C@]4(C)[C@@]3(F)[C@@H](O)C[C@]2(C)[C@@]1(O)C(=O)COC(=O)c1cccc(S(=O)(=O)O)c1 here?
A: inactive

Q: And the Potency [2]?
A: inactive

Q: What does the source list for Cc1cccc(C)c1NC(=O)CN1CCN(CCCC(c2ccc(F)cc2)c2ccc(F)cc2)CC1?
A: Potency [1]: inactive; Potency [2]: inconclusive: 4.95 µM [inhibitor, partial curve]

Q: For CN(C)CC/C=C1/c2ccccc2CSc2ccccc21, which Potency [1] is on record?
A: inconclusive: 0.0794 µM [cytotoxic, full curve, poor fit]

Q: And the Potency [2]?
A: inconclusive: 12.4 µM [inhibitor, single point]

Q: For C#C[C@]1(O)CC[C@H]2[C@@H]3[C@H](C)CC4=C(CCC(=O)C4)[C@H]3CC[C@@]21C, which Potency [1] is on record?
A: inactive

Q: And the Potency [2]?
A: inconclusive: 18.4 µM [inhibitor, partial curve, poor fit]

Q: For Nc1ncn([C@@H]2O[C@H](CO)[C@@H](O)[C@H]2O)c(=O)n1, which Potency [6] is on record?
A: inconclusive: 5.62 µM [cytotoxic, full curve, poor fit] and inconclusive: 17.8 µM [cytotoxic, full curve]

Q: And the Potency [1]?
A: inconclusive: 14.1 µM [cytotoxic, partial curve, poor fit]

Q: What about the Potency [3] of the same compound?
A: active: 16.6 µM

Q: And the Potency [7]?
A: inconclusive: 4.18 µM [cytotoxic, partial curve]

Q: What about the Potency [4] of the same compound?
A: inconclusive: 3.72 µM [cytotoxic, full curve, poor fit]

Q: What about the Potency [5] of the same compound?
A: inconclusive: 18.7 µM [cytotoxic, partial curve]

Q: What about the Potency [8] of the same compound?
A: inconclusive: 22.4 µM [inhibitor, single point] and inconclusive: 35.5 µM [inhibitor, single point]

Q: What about the Potency [9] of the same compound?
A: inactive

Q: With CC(C(O)c1ccc(O)cc1)N1CCC(Cc2ccccc2)CC1 (configuration not stated) as the compound, how does the Potency [1] read?
A: inconclusive: 31.6 µM [cytotoxic, single point]

Q: What about the Potency [2] of the same compound?
A: inconclusive: 29.1 µM [inhibitor, single point]

Q: With O=C1O[C@H]([C@@H](O)CO)C(O)=C1O as the compound, how does the Potency [1] read?
A: inconclusive: 0.0282 µM [cytotoxic, full curve, poor fit]

Q: What about the Potency [2] of the same compound?
A: inactive

Q: With O=C(O)C[C@H](O)C[C@H](O)/C=C/c1c(C2CC2)nc2ccccc2c1-c1ccc(F)cc1 as the compound, how does the Potency [1] read?
A: inconclusive: 7.94 µM [cytotoxic, partial curve, poor fit]

Q: What about the Potency [2] of the same compound?
A: active: 8.2 µM and active: 5.17 µM

Q: With CC[C@@H](C(=O)[C@@H](C)[C@@H](O)[C@H](C)CCc1ccc(C)c(O)c1C(=O)O)[C@H]1O[C@](CC)([C@H]2CC[C@](O)(CC)[C@H](C)O2)C[C@@H]1C as the compound, how does the Potency [1] read?
A: inconclusive: 17.8 µM [cytotoxic, partial curve, poor fit]

Q: What about the Potency [2] of the same compound?
A: inconclusive: 20.6 µM [inhibitor, single point]

Q: What does the source list for CN(C)C(=O)CCSC(SCCC(=O)O)c1cccc(/C=C/c2ccc3ccc(Cl)cc3n2)c1 (configuration not stated)?
A: Potency [1]: inactive; Potency [2]: inactive

From PubChem BioAssay (NCATS)
